# Measured values reported in PubChem BioAssay (Tox21).
# Several values for one entry are separate records, joined by “and”; a condition that tells them apart may be missing. Equal values may be shown once. The inconclusive results got no clear call from the source; some entries with a clear call stand among them for comparison. For some of these results: Potencies of inconclusive entries are doubtful fits and often do not repeat. Where a structure was tested more than once in an assay, its records may differ in their call. Activity calls are given as the source filed them. Unless noted, calls come from the whole dose curve; as a rule, active = well fitted curve in the direction sought with a large enough effect in the repeat runs; inconclusive = weak or mixed curves; inactive = no such curve, though single readings can be large; an effect the other way counts as inactive or inconclusive.
# Tests used:
# [1] = qHTS assay to identify small molecule antagonists of the estrogen receptor beta (ER-beta) signaling pathway - cell viability counter screen (AID 1259382); note: nearly all actives have a fitted effect of over 55% in size; note: potency is the fitted concentration of half-maximal effect
# Outline: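 HEK293T ER-beta-UAS-bla, 2% charcoal-stripped FBS; compounds + 1nM E2 16 hr 37C; CellTiter-Glo luminescence, 30 min RT.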
# [2] = qHTS assay to identify small molecule agonists of the estrogen receptor alpha (ER-alpha) signaling pathway in the presence of an antagonist - cell viability counter screen (AID 1259386);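 note: potency is the fitted concentration of half-maximal effect; cells exposed to compounds for 22 h at 37 °C before the viability read; nearly all actives have a fitted effect of over 30% in size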
# Outline: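 Steps: 5-day stripped-FBS culture; seed and incubate 24hr; add ICI-182,780 (10.0nM final); pin 15-point compound titration; incubate 22hr at 37C; add CellTiter-Fluor at 21hr; read fluorescence.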
# [3] = biological target: Progesterone receptor (Homo sapiens) (UniProt P06401); assay: qHTS assay to identify small molecule agonists of the progesterone receptor (PR) signaling pathway (AID 1346784; calls by dose curve; note: nearly all actives have a fitted effect of over 30% in size; note: potency is the fitted concentration of half-maximal effect; for activation: % is set by controls: 0 for no effect and ±100 for the full control effect); details: PR-UAS-bla HEK293T, beta-lactamase FRET ratio, 16 h; activation: at 92.4 µM (top of the series) unless noted
# Outline: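 PR-UAS-bla HEK 293T cells carrying a UAS-driven beta-lactamase reporter were seeded in medium with 2% charcoal-stripped FBS, preincubated 6 hr at 37C, then exposed to compounds in DMSO for 16 hr; agonism was read by LiveBLAzer B/G FRET fluorescence.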
# [4] = biological target: Progesterone receptor (Homo sapiens) (UniProt P06401); assay: qHTS assay to identify small molecule antagonists of the progesterone receptor (PR) signaling pathway (AID 1346795; active = well fitted inhibition curve with a large enough effect in the signal ratio in the repeat runs, not every such curve was filed as active; inconclusive = weak or mixed curves; the % refers to the signal ratio; note: potency is the fitted concentration of half-maximal effect; for activity change, negative = inhibition: % is set by controls: 0 for no effect and ±100 for the full control effect); details: PR-UAS-bla HEK293T, beta-lactamase FRET ratio, 16 h; activity change, negative = inhibition: at 92.4 µM (top of the series) unless noted
# Outline: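 PR-UAS-bla HEK293T cells carrying a UAS-driven beta-lactamase reporter were plated in medium with 2% charcoal-stripped FBS and rested 6 hr at 37C. Compounds were added with 1 nM R5020 (final) for 16 hr, then FRET substrate loaded 2 hr at room temperature.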
# [5] = Caspase-3/7 induction in CHO-K1 cells by small molecules, qHTS cell viability counter screen (AID 1346979); note: potency is the fitted concentration of half-maximal effect; nearly all actives have a fitted effect of over 35% in size
# Outline: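 Wild-type CHO-K1 cells were seeded at 1,500 per well, rested 5hr at 37 C, then exposed to compounds in DMSO. After 16hr, CellTiter-Fluor reagent was added and fluorescence read 1hr later as the viability measure.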
# [6] = qHTS assay to identify small molecule antagonists of the progesterone receptor (PR) signaling pathway - cell viability counter screen (AID 1346798); note: potency is the fitted concentration of half-maximal effect; nearly all actives have a fitted effect of over 50% in size
# Outline: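 PR-UAS-bla HEK293T cells in medium with 2% charcoal-stripped FBS were treated with compounds plus R5020 for 16 hr at 37C. Cell viability was then read by CellTiter-Glo luminescence after 30 min at room temperature in the same wells.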
# [7] = qHTS assay to identify small molecule agonists of the progesterone receptor (PR) signaling pathway - cell viability counter screen (AID 1346799; calls by dose curve; note: nearly all actives have a fitted effect of over 45% in size; note: potency is the fitted concentration of half-maximal effect)
# Outline: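 PR-UAS-bla HEK293T cells, 3,000 per well in medium with 2% charcoal-stripped FBS, were preincubated 6 hr at 37C, then exposed to compounds for 16 hr; viability was read as CellTiter-Glo luminescence after 30 min at room temperature.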
# [8] = qHTS assay to identify small molecule antagonists of the TGF-beta/Smad signaling pathway (AID 1346924; active = well fitted inhibition curve with a large enough effect in the signal ratio in the repeat runs, not every such curve was filed as active; inconclusive = weak or mixed curves; the % refers to the signal ratio); details: SBE-bla HEK293T, TGF-beta/Smad reporter, beta-lactamase ratio; activity, negative = inhibition: at 76.8 µM (top of the series) unless noted
# Outline: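 Read-out was FRET-substrate fluorescence (405 nm excitation; 460 and 530 nm emission) after 2 h at room temperature. Before that, cells carrying a Smad-binding-element beta-lactamase reporter in HEK 293T had been stimulated 5 h at 37 C with TGF-beta1 (0.25 ng/mL addition solution) in the presence of test compound.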
# [9] = Human pregnane X receptor (PXR) small molecule agonists, qHTS cell viability counter screen (AID 1346977); note: nearly all actives have a fitted effect of over 50% in size; note: potency is the fitted concentration of half-maximal effect
# Outline: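 PXR-Luc HepG2 cells in medium with 5% charcoal-stripped FBS were pre-incubated 5hr, then exposed to compounds for 24hr at 37C. Viability was read in the same wells by CellTiter-Fluor fluorescence, reagent added after 23hr with a 1hr incubation.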
# [10] = Caspase-3/7 induction in HepG2 cells by small molecules, qHTS assay (AID 1346978); note: potency is the fitted concentration of half-maximal effect; nearly all actives have a fitted effect of over 15% in size
# Outline: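 Caspase-3/7 induction was measured by Caspase-Glo 3/7 luminescence (30 min, room temperature) after a 17 hr compound exposure of wild-type HepG2 cells seeded at 2,000 per well and pre-incubated 5 hr.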
# [11] = qHTS assay to identify small molecule agonists of the TGF-beta/Smad signaling pathway (AID 1346859; active = well fitted activation curve with a large enough effect in the signal ratio in the repeat runs, not every such curve was filed as active; inconclusive = weak or mixed curves; the % refers to the signal ratio; note: % is set by controls: 0 for no effect and ±100 for the full control effect); details: SBE-bla HEK293T, TGF-beta/Smad beta-lactamase reporter, 5 h; activation: at 76.8 µM (top of the series)
# Outline: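 HEK 293T cells stably carrying a beta-lactamase reporter driven by the Smad binding element were seeded overnight, exposed to DMSO-dissolved compounds for 5 hr at 37 C, 5% CO2, then loaded with FRET substrate for 2 hr at room temperature.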
# [12] = qHTS assay to identify small molecule agonists of the TGF-beta/Smad signaling pathway - cell viability counter screen (AID 1346829); note: potency is the fitted concentration of half-maximal effect; nearly all actives have a fitted effect of over 45% in size
# Outline: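 CellTiter-Glo luminescence readout; SBE-bla HEK 293T cells, overnight plating, compound 5 hr at 37 C/5% CO2, then bla substrate 2 hr RT, then CellTiter-Glo 30 min RT.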
# [13] = Caspase-3/7 induction in CHO-K1 cells by small molecules, qHTS assay (AID 1346980); note: % is set by controls: 0 for no effect and ±100 for the full control effect; nearly all actives have a fitted effect of over 15% in size
# Outline: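 Luminescent Caspase-Glo 3/7 read (30min, room temperature) quantified apoptosis induction. Cells were wild-type CHO-K1, treated with compound for 17hr at 37 C and 5% CO2.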
# Tags give direction and shape of the fitted curve or compound fluorescence and quenching.
# Sequence of UniProt P06401 (P06401 whole entry, looked up): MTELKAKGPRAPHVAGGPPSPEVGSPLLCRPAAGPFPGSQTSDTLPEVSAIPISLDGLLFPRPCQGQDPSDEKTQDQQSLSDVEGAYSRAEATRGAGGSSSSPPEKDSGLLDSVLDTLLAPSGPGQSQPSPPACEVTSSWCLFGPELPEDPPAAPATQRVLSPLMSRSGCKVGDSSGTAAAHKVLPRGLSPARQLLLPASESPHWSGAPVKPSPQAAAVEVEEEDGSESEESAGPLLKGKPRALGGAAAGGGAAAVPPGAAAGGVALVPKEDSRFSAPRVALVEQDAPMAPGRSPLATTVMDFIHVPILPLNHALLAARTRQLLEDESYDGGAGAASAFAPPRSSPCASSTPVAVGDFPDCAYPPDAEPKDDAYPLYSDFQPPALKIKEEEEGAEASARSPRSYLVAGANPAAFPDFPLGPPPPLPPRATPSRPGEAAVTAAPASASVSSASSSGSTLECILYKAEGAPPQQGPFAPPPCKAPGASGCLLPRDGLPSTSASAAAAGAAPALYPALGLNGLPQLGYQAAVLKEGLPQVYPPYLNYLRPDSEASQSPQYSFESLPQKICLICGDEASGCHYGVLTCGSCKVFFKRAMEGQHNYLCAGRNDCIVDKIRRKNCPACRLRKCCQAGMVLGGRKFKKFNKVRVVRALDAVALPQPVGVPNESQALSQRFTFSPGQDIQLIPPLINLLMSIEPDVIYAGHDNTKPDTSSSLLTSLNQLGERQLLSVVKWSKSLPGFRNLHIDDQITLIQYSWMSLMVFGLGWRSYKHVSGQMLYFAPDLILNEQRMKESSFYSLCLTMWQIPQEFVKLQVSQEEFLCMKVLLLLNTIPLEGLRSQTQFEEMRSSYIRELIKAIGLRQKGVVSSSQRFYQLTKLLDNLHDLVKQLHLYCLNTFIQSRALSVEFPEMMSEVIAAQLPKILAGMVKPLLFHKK
smiles,measurement,setting,value
C[C@]12C=CC3=C4CCC(=O)C=C4CC[C@H]3[C@@H]1CC[C@@H]2O,Potency,[1],"inconclusive: 58 µM [cytotoxic, single point]"
same,Potency,[2],"inconclusive: 2.31 µM [cytotoxic, single point]"
same,Potency,[3],active: 0.0271 µM
same,Potency,[4],"inconclusive: 0.0058 µM [falling, full curve, poor fit]"
same,"activity change, negative = inhibition",[4],inconclusive: -22.7%
same,Potency,[5],active: 60.7 µM and active: 46.1 µM
CCN(CC)C(=S)S,Potency,[1],"inconclusive: 54.9 µM [cytotoxic, partial curve] and active: 12.1 µM and inconclusive: 13.7 µM [cytotoxic, full curve]"
same,Potency,[3],"inconclusive: 69.1 µM [inhibitor, partial curve, poor fit]"
same,Potency,[4],active: 49 µM and active: 6.82 µM and active: 13.7 µM
same,Potency,[6],active: 61.6 µM and active: 7.65 µM and active: 17.2 µM
same,Potency,[7],"inconclusive: 69.1 µM [cytotoxic, single point] and active: 17.1 µM"
same,"activity, negative = inhibition",[8],inconclusive: -6.55% and inconclusive: 0.149% and inconclusive: -4.23%
same,Potency,[9],"inconclusive: 13.8 µM [cytotoxic, full curve] and active: 28.2 µM and inactive"
same,Potency,[10],active: 27.1 µM
CCC(C)c1cccc(C(C)CC)c1O (stereo unspecified),Potency,[1],inactive
same,Potency,[4],"inconclusive: 61.1 µM [falling, partial curve, poor fit]"
same,Potency,[7],inactive
same,Potency,[10],inconclusive: 61.1 µM [activator]
same,Potency,[5],"inconclusive: 68.6 µM [cytotoxic, partial curve, poor fit]"
CCOP(=S)(OCC)SCn1nnc2ccccc2c1=O,Potency,[1],inactive
same,Potency,[2],"inconclusive: 43.3 µM [cytotoxic, partial curve]"
same,Potency,[4],active: 27.3 µM
same,Potency,[6],"inconclusive: 68.6 µM [cytotoxic, single point]"
same,Potency,[7],"inconclusive: 21.7 µM [rising, partial curve]"
same,Potency,[9],"inconclusive: 68.6 µM [cytotoxic, single point]"
same,Potency,[5],active: 68.6 µM
COc1ccc(/C(=C/C(=O)N2CCOCC2)c2ccc(Cl)cc2)cc1OC,Potency,[1],"inconclusive: 61.1 µM [cytotoxic, partial curve, poor fit]"
same,Potency,[4],"inconclusive: 43.3 µM [rising, partial curve, poor fit]"
same,Potency,[11],inactive
same,Potency,[9],inactive
CCCCCCCc1ccc(O)cc1,Potency,[1],active: 48.6 µM
same,Potency,[2],"inconclusive: 3.86 µM [cytotoxic, partial curve, poor fit]"
same,Potency,[4],active: 21.7 µM
same,Potency,[7],"inconclusive: 77 µM [cytotoxic, single point]"
same,Potency,[12],"inconclusive: 30.9 µM [cytotoxic, partial curve]"
same,"activity, negative = inhibition",[8],inconclusive: -6.58%
same,Potency,[9],"inconclusive: 24.3 µM [cytotoxic, single point]"
same,Potency,[10],"inconclusive: 68.6 µM [activator, single point]"
same,Potency,[5],"inconclusive: 68.6 µM [cytotoxic, single point]"
same,Potency,[13],inactive
Oc1ccc(C2(c3ccc(O)cc3)c3ccccc3-c3ccccc32)cc1,Potency,[1],active: 61.1 µM
same,Potency,[2],"inconclusive: 12.2 µM [cytotoxic, full curve, poor fit]"
same,Potency,[3],inconclusive: 61.1 µM [cytotoxic]
same,Potency,[4],"inconclusive: 54.5 µM [falling, partial curve]"
same,Potency,[6],active: 48.6 µM
same,Potency,[7],"inconclusive: 77 µM [cytotoxic, single point]"
same,Potency,[12],"inconclusive: 54.9 µM [cytotoxic, single point]"
same,Potency,[9],"inconclusive: 68.6 µM [cytotoxic, single point]"
same,Potency,[10],"inconclusive: 68.6 µM [activator, single point]"
Oc1cc(Cl)c(Cl)c(Cl)c1,Potency,[1],"inconclusive: 10.3 µM [cytotoxic, full curve]"
same,Potency,[2],"inconclusive: 46.1 µM [cytotoxic, partial curve]"
same,activation,[3],inconclusive: 0.354%
same,Potency,[4],active: 13 µM
same,Potency,[7],"inconclusive: 25.9 µM [rising, partial curve]"
same,Potency,[12],"inconclusive: 46.5 µM [cytotoxic, single point]"
Cc1ccc(OP(=O)(Oc2ccccc2)Oc2ccccc2)cc1,Potency,[1],"inconclusive: 27.7 µM [cytotoxic, partial curve]"
same,Potency,[4],active: 15.6 µM
same,Potency,[13],inactive
Clc1cccc(Cl)c1,Potency,[1],"inconclusive: 68.1 µM [cytotoxic, single point]"
same,Potency,[3],inactive
same,"activity change, negative = inhibition",[4],inconclusive: -31.8%
